According to paper PMC7819943, “Rice protein-binding microarrays: a tool to detect cis-acting elements near promoter regions in rice”:
The other results are listed elsewhere or left out.

Each sequence was assayed against T1, OsWOX13 (Oryza sativa, UniProt Q5QMM3 1-267) (assay: protein-binding microarray (RPBM); PBS, 2% BSA, 51.3 ng/ul salmon testes DNA, 50 uM zinc acetate, 200 nM TF, 25 C, 1 h; high values mean tight binding). Conditions: protein: recombinant; tags: N-terminal polyhistidine and DsRed monomer fusion (pET32a); label: CyDye5-dUTP incorporated in the synthesized complementary strand; 3' TTTTT single-stranded linker to array surface; dsDNA, one strand shown.
T1 sequence: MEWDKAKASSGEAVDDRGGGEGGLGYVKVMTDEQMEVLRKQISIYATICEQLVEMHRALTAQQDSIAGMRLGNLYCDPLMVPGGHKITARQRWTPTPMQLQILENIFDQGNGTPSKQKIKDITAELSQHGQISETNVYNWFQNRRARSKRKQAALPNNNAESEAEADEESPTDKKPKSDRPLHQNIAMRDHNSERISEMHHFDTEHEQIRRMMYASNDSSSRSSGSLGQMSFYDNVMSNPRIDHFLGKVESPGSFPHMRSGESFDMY
Procedure, shortened: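 Polyhistidine-tagged DsRed fusions of transcription factors, joined at the N-terminus, were expressed in E. coli BL21-CodonPlus and isolated on Ni–NTA. They were incubated at 200 nM for 1 h at 25 °C on a custom Agilent array, double-stranded and BSA-blocked, in PBS with 2% BSA, salmon testes DNA and 50 µM zinc acetate. The binding signal is per-feature fluorescence intensity (arbitrary units) read on an Axon 4000B scanner after washing.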

Sequence | binding signal
ATTTATTAATTTATTGGTAGTGTTAAAGTCTAGGCAAACTCGGAGTCACCTAGTGCAG | 15800 fluorescence intensity (a.u.)
CATTCAAATTCAGTAGATGATTTTGGTATGACATTGTGCCCGGAGTCACCTAGTGCAG | 3420 fluorescence intensity (a.u.)
GATCAAATCACACATGTCATCATGTTAGCGAGCGAAAGACCGGAGTCACCTAGTGCAG | 4810 fluorescence intensity (a.u.)
ACCTAACAGACACCGGCCTTGCCTGCCTGCGACACACGCACGGAGTCACCTAGTGCAG | 6020 fluorescence intensity (a.u.)
TTTGTGATATAAATCTAAATGTTCACTTGAAGCTGGAAGTCGGAGTCACCTAGTGCAG | 3630 fluorescence intensity (a.u.)
TATTAGTGCCTAATTAATTAAATATTAATTATTATAAATTCGGAGTCACCTAGTGCAG | 10200 fluorescence intensity (a.u.)
GTGATGAGTTTGATGACTGTTGAACTGATCCATACTCCCTCGGAGTCACCTAGTGCAG | 6980 fluorescence intensity (a.u.)
TCCGAGTGATTAATTCACACATTAATTTGTCTCATCGATCCGGAGTCACCTAGTGCAG | 26100 fluorescence intensity (a.u.)
GTAATGACAGGTGACACCTAAGGTCTGTGAAACATACTCCCGGAGTCACCTAGTGCAG | 4350 fluorescence intensity (a.u.)
GTTGATTCATCTCGCGATTGATCGAGCTCGAGCGGCGGTGCGGAGTCACCTAGTGCAG | 12900 fluorescence intensity (a.u.)
TTCTTTAATTTGTCTGAATATATACATTAAAATATCAAATCGGAGTCACCTAGTGCAG | 6700 fluorescence intensity (a.u.)
ATTTCAATCAAATTTTCAATTTTAACGTAAACAAACACACCGGAGTCACCTAGTGCAG | 47800 fluorescence intensity (a.u.)
CCGCACATTAATTGTGATTGTGTGGACATTCTCAATTCTGCGGAGTCACCTAGTGCAG | 21700 fluorescence intensity (a.u.)
CAAAATTAAAAGTTTGACTAAAATTGAAAGTTTGATGAAACGGAGTCACCTAGTGCAG | 9270 fluorescence intensity (a.u.)
AATCTTGTAATAGATTTAACGATTTAAAATTATGTGAAACCGGAGTCACCTAGTGCAG | 8900 fluorescence intensity (a.u.)
GCTGACTAACTAATTGTAGAGGATTGGGTAGGTTTGATTTCGGAGTCACCTAGTGCAG | 31900 fluorescence intensity (a.u.)
TGGGACAGATTGAGATAGTTGAGGATTCGTAGCCCGGCGGCGGAGTCACCTAGTGCAG | 18100 fluorescence intensity (a.u.)
TACAAATTGATTGGCTATAGGTCAAATAGTGGATCCTAGACGGAGTCACCTAGTGCAG | 56000 fluorescence intensity (a.u.)
TTCCTAATCTGTTTCCATTTTCTGCTTAGGAATTTATAGGCGGAGTCACCTAGTGCAG | 3270 fluorescence intensity (a.u.)
CGCTCAGATTGATTTCATTTTAAATCATAACATTATTCAGCGGAGTCACCTAGTGCAG | 47000 fluorescence intensity (a.u.)
AACAGCAATTTACTGAGATTATTATTGCCACGAGCTCTACCGGAGTCACCTAGTGCAG | 6580 fluorescence intensity (a.u.)

Sequence | binding signal
ATCCCTATTCTAATTACAGGCAAGTCACAACATTATTATACGGAGTCACCTAGTGCAG | 3480 fluorescence intensity (a.u.)
CTGCGATTGATTCGGCCTCTGAAAATCGATCATGGAATTCCGGAGTCACCTAGTGCAG | 16500 fluorescence intensity (a.u.)
TTAATTAGAACTTGGTGTTGAACGTACTACCTGATGATCTCGGAGTCACCTAGTGCAG | 6400 fluorescence intensity (a.u.)
TACCTGTAAATCATTTTCATTACTGTTGTGGGGATGCTCACGGAGTCACCTAGTGCAG | 3230 fluorescence intensity (a.u.)
TCTTGATAGAGATTTTGACTGATGATTAGGTAGTAGTGAGCGGAGTCACCTAGTGCAG | 48100 fluorescence intensity (a.u.)
CCTGATGATCAACCAGCATAAAGGAGAGGCTTCTGGTTGGCGGAGTCACCTAGTGCAG | 5310 fluorescence intensity (a.u.)
TAAATTTTAAGTTATTTATTTATTATGTGGTAATAGCTCACGGAGTCACCTAGTGCAG | 3350 fluorescence intensity (a.u.)
GCGATGGGAGGTGGGCGACGCGAGGGAGAGGGGAGAGGGGCGGAGTCACCTAGTGCAG | 6590 fluorescence intensity (a.u.)
ATCAATAATCATATCGTCGTCTTCTCTGGGAGACCCGGAGCGGAGTCACCTAGTGCAG | 3950 fluorescence intensity (a.u.)
CTCTTAGCCGCAATAAATAATTACATCAATTTCAGAGTAACGGAGTCACCTAGTGCAG | 3280 fluorescence intensity (a.u.)
GGTCATAATTTAGCTCAATCTGCTGTTTGGTTCATTGGTTCGGAGTCACCTAGTGCAG | 17100 fluorescence intensity (a.u.)
GCCAATCAGTTAAGCCTGACATATTAATATTTAAGGGGTTCGGAGTCACCTAGTGCAG | 26000 fluorescence intensity (a.u.)
ACCTCAATCTTATCCAAAACGATAATTAGTATAGAACCAGCGGAGTCACCTAGTGCAG | 6880 fluorescence intensity (a.u.)
AAAACTAATGTTATGATAATGATTATAGTTATTTTATAAGCGGAGTCACCTAGTGCAG | 4590 fluorescence intensity (a.u.)
AAATATTGATATAACTATATGATTTTGTTAATGACATGTTCGGAGTCACCTAGTGCAG | 14900 fluorescence intensity (a.u.)
AATTTGATTTCCTCTTCTTTTGTTGCTTAATTTCAGTCTCCGGAGTCACCTAGTGCAG | 5580 fluorescence intensity (a.u.)
TTTTCAACAATCAATTTTATATATTAGAATACGTTTATAACGGAGTCACCTAGTGCAG | 4000 fluorescence intensity (a.u.)
CAAGTTTAATTTGAAAAGTTTCAGATTAAATTTTGAGTATCGGAGTCACCTAGTGCAG | 10100 fluorescence intensity (a.u.)
GCAGGAAGTAATTTTCCCATCAAATTTACTTGGGTTTGAGCGGAGTCACCTAGTGCAG | 4350 fluorescence intensity (a.u.)
GTTAATTAATTTCATACTCGCTATATTATTGGTCCTTCCTCGGAGTCACCTAGTGCAG | 41100 fluorescence intensity (a.u.)
CAATGATTGTTATGTAACTAGGGTATGCAGCTGTAGTATACGGAGTCACCTAGTGCAG | 40400 fluorescence intensity (a.u.)

Sequence | binding signal
CTAAAATTAGCAAAGACTCGCAGCGTAAAGACGCCATGCCCGGAGTCACCTAGTGCAG | 5420 fluorescence intensity (a.u.)
TCCTTGACATACAAGTTTAAAACTTAACCCGAGTCTTCTCCGGAGTCACCTAGTGCAG | 8970 fluorescence intensity (a.u.)
TTTGATTTGGTAAATTCCAAACTGCCGTATTTGAAACGGGCGGAGTCACCTAGTGCAG | 40800 fluorescence intensity (a.u.)
AACGAAATTGGCCCAGCACACGCCAAGCTCAAGCAGGCCACGGAGTCACCTAGTGCAG | 4580 fluorescence intensity (a.u.)
TCTTTGATGTTTCACGCATGATAGATAAATGTGTTTCAACCGGAGTCACCTAGTGCAG | 3240 fluorescence intensity (a.u.)
CAGGATTGAAATACCCTAACACATTAAATTATATTCCCTCCGGAGTCACCTAGTGCAG | 33700 fluorescence intensity (a.u.)
ACTATTGATGTTAATGATTCGATAGTTCAATTATTTTATCCGGAGTCACCTAGTGCAG | 8140 fluorescence intensity (a.u.)
ATAAACCCTGATTAAAACCAGACAAATTGCTGGACTCGGCCGGAGTCACCTAGTGCAG | 7960 fluorescence intensity (a.u.)
CTCTCAATTCAAATCACCCACGTCAACAGAAGTAATCAGCCGGAGTCACCTAGTGCAG | 4570 fluorescence intensity (a.u.)
TATATTGATGGAAGTATTATATATCATTAATATCTTTAGCCGGAGTCACCTAGTGCAG | 24000 fluorescence intensity (a.u.)
TATGATAAATTTAGTGTTAATTCTATAGTTTTGTGATACACGGAGTCACCTAGTGCAG | 23400 fluorescence intensity (a.u.)
GTATAAACTGAATGTTGTTGATCTTGGTTAGGTGGAAGGCCGGAGTCACCTAGTGCAG | 9240 fluorescence intensity (a.u.)
AGATAAATCAAAATTCAACATGTAAACAAAGTTGGAGAACCGGAGTCACCTAGTGCAG | 4590 fluorescence intensity (a.u.)
AGCACGATATATAGATTGAACTGCTAGTTGCCTCGTGTTACGGAGTCACCTAGTGCAG | 6510 fluorescence intensity (a.u.)
TCTGCCAATTAAGCCAGTTGATTAGCTCACAAGGCAATCACGGAGTCACCTAGTGCAG | 48800 fluorescence intensity (a.u.)
TTTATTAGAAAATAATTAATTTATGGATAAAACTTTTATACGGAGTCACCTAGTGCAG | 5710 fluorescence intensity (a.u.)
TCGATTAATCACCGAGCTAATTAAGCTGAGAGCCCGAGATCGGAGTCACCTAGTGCAG | 14000 fluorescence intensity (a.u.)
ATATATATATATATATATATATGTACACCACCAATTAATACGGAGTCACCTAGTGCAG | 10700 fluorescence intensity (a.u.)
GATGTTTGGACACTAATTTAGAGTATTAAACACAGACTACCGGAGTCACCTAGTGCAG | 3740 fluorescence intensity (a.u.)
TTCCTGATAGAGACCATACTTCTCAAAGTAAAATGTTATCCGGAGTCACCTAGTGCAG | 8200 fluorescence intensity (a.u.)
TAAAATTATTGGATATATGTCCAAAGTTAGGTCGTACAGTCGGAGTCACCTAGTGCAG | 4950 fluorescence intensity (a.u.)

Sequence | binding signal
GGGGATTGATTCTGGCACAGGCATATAATGCAGTAATATGCGGAGTCACCTAGTGCAG | 44000 fluorescence intensity (a.u.)
AAGACAAATTGCTAACCTTTCTTTTCCATTAATGGAAGAGCGGAGTCACCTAGTGCAG | 10500 fluorescence intensity (a.u.)
GGTAATTCACGTTAACTGAAGAGGAGTTATTGAAACAAAACGGAGTCACCTAGTGCAG | 13800 fluorescence intensity (a.u.)
CTGATTGTTTGTTTAGGATTATGATTTAGTAGTGAGGAGACGGAGTCACCTAGTGCAG | 39800 fluorescence intensity (a.u.)
ATGTTTTGTTTGATTGTGTGCATGCCCTCTTTCTTATGATCGGAGTCACCTAGTGCAG | 6380 fluorescence intensity (a.u.)
CAGTAATTTCTATATAGAAAGTTTACGATCGTCTTGCAGTCGGAGTCACCTAGTGCAG | 11700 fluorescence intensity (a.u.)
GCGCGCGCTAATTGGTGGACTCACCCGCGACACAAGTCAACGGAGTCACCTAGTGCAG | 14900 fluorescence intensity (a.u.)
ATTCAATCAACGGAAAGAGATGAGGGAGGCAAAATGGACTCGGAGTCACCTAGTGCAG | 26500 fluorescence intensity (a.u.)
TTACTCCAATAGCTTGATTGGTATGGGTTCGAGGAGTGATCGGAGTCACCTAGTGCAG | 16600 fluorescence intensity (a.u.)
CACTCAAATAAATTGGAAAATCCCTCCTTTGCTAAATTTCCGGAGTCACCTAGTGCAG | 9760 fluorescence intensity (a.u.)
ACTGTAATTTGTTGTTTTGTTTATCTATGGGCTCATGGAACGGAGTCACCTAGTGCAG | 29000 fluorescence intensity (a.u.)
TGGAGGTGGTGGTGGGAGGAAGGGGAGGAGGAGGCGCGGCCGGAGTCACCTAGTGCAG | 6030 fluorescence intensity (a.u.)
TCCACTAATCAATCGACCACACGTTTCGCCCCGCATGCCCCGGAGTCACCTAGTGCAG | 13900 fluorescence intensity (a.u.)
AAGATGTGATGAGTGACGATGACATATTGGGCCACATAGGCGGAGTCACCTAGTGCAG | 10800 fluorescence intensity (a.u.)
TGTGATTTATATCGTGGAAGATGATGGCTTGGCGGTATAGCGGAGTCACCTAGTGCAG | 36300 fluorescence intensity (a.u.)
AGCTTTAATTGAAGTAAATGTTGGGTTTAATATCCGTTAACGGAGTCACCTAGTGCAG | 23200 fluorescence intensity (a.u.)
AGTTGACAGTTGACAGCGGCGGTGCGCGTGCCGGCCATTGCGGAGTCACCTAGTGCAG | 8850 fluorescence intensity (a.u.)
GAGGGAGTATATGATTGACATTTGGCATGATTATCTTATTCGGAGTCACCTAGTGCAG | 15400 fluorescence intensity (a.u.)
GCGGTGCAGGGCGGTGGCGGCGGCGGGTGGGGCGGTGGCGCGGAGTCACCTAGTGCAG | 7550 fluorescence intensity (a.u.)
CATGCCACAAATTGTATTAATTGCGGCTGTTTGATACGAGCGGAGTCACCTAGTGCAG | 15500 fluorescence intensity (a.u.)
AATTAATTAACTCCTCAAGCCTAACCACACAATTCGACGCCGGAGTCACCTAGTGCAG | 30200 fluorescence intensity (a.u.)
